Experimental data reported in PubChem BioAssay AID1030 (National Center for Advancing Translational Sciences (NCATS), 2008).
The campaign covered roughly 220,000 compounds. About 16,000 (7.3%) were called active. Inconclusive results, whose numbers are uncertain, are shown with a selection of clear calls. Calls come from the whole dose curve; as a rule, active = well fitted inhibition curve with a large enough effect (not every such curve was filed as active); inconclusive = small, poorly fitted or top-dose-only effect, or another doubt; inactive = no such curve, though single readings can be large or run the other way. No potency is given beside an inconclusive call; the fits are too rough.

Target: Aldehyde dehydrogenase 1A1 (Homo sapiens) (UniProt P00352)
Assay: qHTS Assay for Inhibitors of Aldehyde Dehydrogenase 1 (ALDH1A1)
Settings: Purified ALDH1A1, NADH fluorescence, propionaldehyde substrate; series mostly up to 75.3 µM
Potency is the fitted concentration of half-maximal effect; tags give direction and shape of the fitted curve.

Chain of UniProt P00352 (P00352 whole entry, looked up): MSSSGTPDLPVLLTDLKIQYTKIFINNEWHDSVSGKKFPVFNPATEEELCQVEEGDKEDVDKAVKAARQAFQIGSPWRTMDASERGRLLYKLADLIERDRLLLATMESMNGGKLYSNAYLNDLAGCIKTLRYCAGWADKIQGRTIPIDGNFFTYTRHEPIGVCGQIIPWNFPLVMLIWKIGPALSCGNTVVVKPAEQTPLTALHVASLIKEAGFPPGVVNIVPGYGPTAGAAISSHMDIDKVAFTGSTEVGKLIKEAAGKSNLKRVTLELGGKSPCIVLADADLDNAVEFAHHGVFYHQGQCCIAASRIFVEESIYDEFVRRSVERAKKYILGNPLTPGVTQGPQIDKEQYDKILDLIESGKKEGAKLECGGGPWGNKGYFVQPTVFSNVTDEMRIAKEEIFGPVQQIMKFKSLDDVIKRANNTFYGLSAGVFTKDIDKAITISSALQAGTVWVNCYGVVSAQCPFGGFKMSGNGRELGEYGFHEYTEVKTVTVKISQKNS

Q: With `COc1ccc(C(=O)NCC23C=CC(O2)C2C(=O)N(Cc4ccccc4)C(=O)C23)cc1` (stereo unspecified) as the molecule, how does the Potency read?
A: The Potency was active: 7.94 µM.

Q: With `COc1ccc(CCNC(=O)Cn2nnc3ccccc3c2=O)cc1` as the molecule, how does the Potency read?
A: The Potency was inconclusive [inhibitor, single point].

Q: With `Cc1cccc(NC(=O)NNC(=O)c2cc3ccccc3cc2O)c1C` as the molecule, how does the Potency read?
A: The Potency was inconclusive [inhibitor, single point].

Q: How did the Potency turn out when `CC(C)CC(=O)O/N=C1\C(=O)N(c2ccccc2)c2ccccc21` was run?
A: The Potency was inconclusive [inhibitor, full curve].

Q: `COc1ccc(OC)c(NC(=O)c2cc3ccccc3o2)c1` was tested. Which Potency did it give?
A: Its Potency is inconclusive [inhibitor, single point].

Q: With `O=C(c1ccccc1F)N(NC(=O)C(O)(c1ccccc1)c1ccccc1)c1ccccc1` as the molecule, how does the Potency read?
A: Its Potency is inconclusive [inhibitor, single point].

Q: With `Cc1cccc(OCC(=O)N/N=C/c2ccccc2C(=O)O)c1` as the molecule, how does the Potency read?
A: Its Potency is inconclusive [inhibitor, single point].

Q: Which Potency does the source give for `Cc1ccc(N(CCC(=O)O)S(=O)(=O)c2cccc(C(F)(F)F)c2)cc1` here?
A: Its Potency is “inactive”.

Q: With `C=CCCC(=O)Nc1nc(C)c(-c2csc(Nc3ccc(Cl)cc3)n2)s1` as the molecule, how does the Potency read?
A: The Potency was inconclusive [inhibitor, partial curve].

Q: Which Potency does the source give for `CCOc1ccc(-n2nnnc2SCC(=O)NNC(=O)c2ccco2)cc1` here?
A: Its Potency is “inactive”.

Q: `C/C(=N\O)C(C)Oc1ccc(Cl)cc1` (stereo unspecified) was tested. Which Potency did it give?
A: Its Potency is “inactive”.

Q: For `O=C(COCC(=O)NCc1ccccc1)NCc1ccccc1`, which Potency is on record?
A: The Potency was “inactive”.

Q: With `COc1ccc(-n2c(SCC(=O)Nc3cc(C)on3)nc3ccccc3c2=O)cc1Cl` as the molecule, how does the Potency read?
A: Its Potency is “inactive”.

Q: `Cc1ccc(CNC(=O)CSc2c3c(nc4ccc(Cl)cc24)CCCC3)o1` was tested. Which Potency did it give?
A: Its Potency is active: 8.91 µM.

Q: How did the Potency turn out when `CCc1ccc(N(C(=O)CCC(=O)Nc2cc(C)on2)C(C(=O)NC2CCCC2)c2ccco2)cc1` (stereo unspecified) was run?
A: Its Potency is inconclusive [inhibitor, single point].

Q: How did the Potency turn out when `CC(=O)Nc1ccc(S(=O)(=O)NCC(=O)OC(C)c2ccccc2Cl)cc1` (stereo unspecified) was run?
A: Its Potency is inconclusive [inhibitor, partial curve].

Q: For `COc1ccc2nc(/C=N/NC(=O)[C@H](CCSC)NC(=O)OC(C)(C)C)ccc2c1`, which Potency is on record?
A: Its Potency is inconclusive [inhibitor, partial curve].

Q: `CCCCCCCCN1C(=O)C(O)=C(C(C)=O)C1c1ccccn1` (stereo unspecified) was tested. Which Potency did it give?
A: Its Potency is “inactive”.

Q: `CCN(CC(=O)NC1CCCCC1)S(=O)(=O)c1ccc(Cl)cc1` was tested. Which Potency did it give?
A: The Potency was “inactive”.

Q: `CC(CCc1ccco1)NC(=O)c1cccc2c1C(=O)N(C1CCCCC1)C2` (stereo unspecified) was tested. Which Potency did it give?
A: The Potency was inconclusive [inhibitor, single point].

Q: `COc1ccc(C(=O)CSc2nc3ccccc3n2CC(=O)NC(C)(C)C)cc1` was tested. Which Potency did it give?
A: Its Potency is active: 2.24 µM.

Q: `CCOc1cc(/C=C2\C(=O)N(CCc3ccc(OC)c(OC)c3)C(C)=C2C(=O)OC)ccc1O` was tested. Which Potency did it give?
A: Its Potency is active: 11.2 µM.

Q: How did the Potency turn out when `COc1ccc(C2C(C(C)=O)=C(O)C(=O)N2CCCn2ccnc2)cc1` (stereo unspecified) was run?
A: Its Potency is “inactive”.

Q: `O=C(CCC1COc2ccccc2O1)NCc1ccccc1` (stereo unspecified) was tested. Which Potency did it give?
A: Its Potency is inconclusive [inhibitor, single point].

Q: Which Potency does the source give for `CCc1nnc(NS(=O)(=O)c2ccc(NC(=S)NC(=O)c3ccc(OC)cc3)cc2)s1` here?
A: Its Potency is active: 17.8 µM.

Q: `CNC(=O)CN(c1cc(C)ccc1OC)S(=O)(=O)c1ccc(C)cc1` was tested. Which Potency did it give?
A: The Potency was “inactive”.

Q: `Cc1cc(-c2nnc3n2N=C(c2ccc(-c4ccccc4)cc2)CS3)n[nH]1` was tested. Which Potency did it give?
A: Its Potency is inconclusive [inhibitor, single point].

Q: For `CCOC(=O)C1=C(CSc2nc3c(cc2C#N)CN(C)CC3)OC(N)=C(C#N)C1c1ccc(Cl)cc1` (stereo unspecified), which Potency is on record?
A: Its Potency is inconclusive [inhibitor, single point].

Q: How did the Potency turn out when `Cc1ccc(C2=NC3(CCCCC3)N=C2SCC(=O)Nc2ccc3c(c2)OCCO3)cc1` was run?
A: The Potency was inconclusive [inhibitor, single point].

Q: For `O=C1CCCc2c1cc(C(=O)Nc1ccc(Cl)cn1)c(=O)n2-c1ccccc1`, which Potency is on record?
A: Its Potency is “inactive”.

Q: Which Potency does the source give for `O=C(CCc1ccc(S(=O)(=O)N2CCOCC2)cc1)OCc1nc2ccccc2s1` here?
A: The Potency was active: 7.94 µM.

Q: Which Potency does the source give for `Cc1nc(N2N=C3/C(=C/c4ccc(F)cc4)CCCC3C2c2ccc(F)cc2)sc1C(=O)N(C)C` (stereo unspecified) here?
A: The Potency was inconclusive [inhibitor, partial curve].

Q: Which Potency does the source give for `Cc1ccc([N+](=O)[O-])c(C(=O)N/N=C/c2cccnc2)c1` here?
A: Its Potency is inconclusive [inhibitor, partial curve].

Q: With `Cc1ccc(CNc2nc(-c3cccs3)nc3ccccc23)cc1` as the molecule, how does the Potency read?
A: The Potency was inconclusive [inhibitor, partial curve].

Q: Which Potency does the source give for `O=C(O)c1ccc(CNc2ccccc2C(=O)O)cc1` here?
A: Its Potency is inconclusive [inhibitor, partial curve].

Q: With `Cc1cc(C)c2c(-n3cccc3)c(C(=O)NNS(=O)(=O)c3ccc(F)cc3)sc2n1` as the molecule, how does the Potency read?
A: Its Potency is active: 2.24 µM.

Q: How did the Potency turn out when `CN(C)c1ccc(-c2nn3c(-c4cccnc4)nnc3s2)cc1` was run?
A: Its Potency is inconclusive [inhibitor, single point].

Q: Which Potency does the source give for `CCC(=O)Oc1cccc(C(=O)Nc2ccc(-c3nnc(-c4ccco4)o3)cc2)c1` here?
A: Its Potency is inconclusive [inhibitor, single point].

Q: How did the Potency turn out when `Cc1onc(-c2c(Cl)cccc2Cl)c1C(=O)Nc1ccc2c(c1)OCO2` was run?
A: The Potency was “inactive”.

Q: Which Potency does the source give for `Cc1ccc2cc(CN(CC3CCCO3)C(=S)Nc3ccccc3)c(=O)[nH]c2c1` (stereo unspecified) here?
A: The Potency was inconclusive [inhibitor, partial curve].

Q: Which Potency does the source give for `CCn1c(CNc2ccc(Cl)cc2)nnc1SCC#N` here?
A: Its Potency is “inactive”.

Q: `O=C(COC(=O)c1ccc(OC(F)F)cc1)NCCCN1CCCC1=O` was tested. Which Potency did it give?
A: Its Potency is “inactive”.

Q: `COC(=O)C1=CN(C)C=C(C(=O)OC)C1c1ccc(O)c(OC)c1` was tested. Which Potency did it give?
A: The Potency was inconclusive [inhibitor, single point].

Q: For `COC(=O)C1=CN(C2CC2)C=C(C(=O)OC)C1c1ccccc1OC`, which Potency is on record?
A: Its Potency is inconclusive [inhibitor, partial curve].

Q: Which Potency does the source give for `O=C(CSc1ncnc2ccccc12)Nc1ccc(N2CCOCC2)cc1` here?
A: The Potency was inconclusive [inhibitor, single point].

Q: For `CCCCCNC(=O)c1ccc2c(=O)n(CCCOCC)c(=S)[nH]c2c1`, which Potency is on record?
A: The Potency was “inactive”.
